# Results published in PubChem BioAssay (Tox21).
# Several values for one entry are separate records, joined by “and”; a condition that tells them apart may be missing. Equal values may be shown once. Inconclusive results, whose numbers are uncertain, are shown with a selection of clear calls. For part of these data: Potencies of inconclusive entries are doubtful fits and often do not repeat. A structure can be active in one record and inactive in another. Activity calls are given as the source filed them. Unless noted, the call rests on the fitted dose curve; in most records, active means well fitted curve in the direction sought with a large enough effect in the repeat runs; inconclusive means weak or mixed curves; inactive means no such curve, though single readings can be large; an effect the other way counts as inactive or inconclusive.
# Experiments:
# [1] = qHTS assay for small molecule agonists of the p53 signaling pathway (AID 651631; calls by dose curve; further: on the % scale 0 is the no-effect control and ±100 the full control effect; nearly all actives have a fitted effect of over 15% in size); conditions: HCT-116 p53RE-bla reporter, beta-lactamase FRET ratio, 16 h
# Procedure, shortened: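 Read-out is beta-lactamase FRET fluorescence measured 2 h after substrate addition at room temperature, in HCT-116 cells with a p53 response element-driven reporter exposed to compounds for 16 h at 37 °C.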
# [2] = qHTS assay for small molecules that induce genotoxicity in human embryonic kidney cells expressing luciferase-tagged ATAD5 (AID 651632); further: potency means the concentration at half of the fitted maximal effect; nearly all actives have a fitted effect of over 15% in size
# Procedure, shortened: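 Quantitative HTS in HEK293T expressing luciferase-tagged ATAD5, whose levels rise upon DNA damage. Exposure ran 16 hr at 37C and 5% CO2, with luminescence read 30 min after Amplite addition at room temperature.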
# [3] = qHTS assay for small molecule disruptors of the mitochondrial membrane potential (AID 720635); conditions: HepG2 mitochondrial membrane potential, Mito-MPS dye ratio; further: on the % scale 0 is the no-effect control and ±100 the full control effect
# Procedure, shortened: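 Mitochondrial membrane potential tracked with Mito-MPS dye, red aggregates (ex 540/em 590 nm) against green monomers (ex 490/em 535 nm). Compound treatment 1 hr at 37C, dye 30 min in HepG2.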
# [4] = qHTS assay for identifying genotoxic compounds that show differential cytotoxicity against isogenic chicken DT40 cell lines with known DNA damage response pathways - wild type cell line (AID 743012); conditions: DT40 wild type chicken cells viability, CellTiter-Glo, 40 h; activity change, negative = cytotoxicity: at 68.4 µM (top of the series) unless noted; further: on the % scale 0 is the no-effect control and ±100 the full control effect; nearly all actives have a fitted effect of over 60% in size
# Procedure, shortened: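 Luminescent ATP viability signal (CellTiter-Glo, 30 min RT) recorded after wild type DT40 cells were incubated with compounds for 40 h at 37 C/5% CO2.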
# [5] = qHTS assay for identifying genotoxic compounds that show differential cytotoxicity against isogenic chicken DT40 cell lines with known DNA damage response pathways - Rev3 mutant cell line (AID 743014); conditions: chicken DT40 Rev3-/- viability, CellTiter-Glo, 40 h; activity, negative = cytotoxicity: at 68.4 µM (top of the series) unless noted; further: nearly all actives have a fitted effect of over 55% in size; further: potency means the concentration at half of the fitted maximal effect
# [6] = qHTS assay for identifying genotoxic compounds that show differential cytotoxicity against isogenic chicken DT40 cell lines with known DNA damage response pathways - Rad54/Ku70 mutant cell line (AID 743015); conditions: DT40 Rad54/Ku70 mutant viability, CellTiter-Glo, 40 h; activity change, negative = cytotoxicity: at 66.8 µM (top of the series) unless noted; further: on the % scale 0 is the no-effect control and ±100 the full control effect; nearly all actives have a fitted effect of over 60% in size
# [7] = qHTS assay to identify small molecule antagonists of the androgen receptor (AR) signaling pathway using the MDA cell line - cell viability counter screen (AID 743041; further: potency means the concentration at half of the fitted maximal effect; nearly all actives have a fitted effect of over 45% in size); conditions: MDA-kb2 viability, CellTiter-Fluor, 16 h, cells co-treated with R1881 androgen agonist; viability change, negative = cytotoxic: at 70.3 µM (top of the series)
# Procedure, shortened: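 Viability read by CellTiter-Fluor fluorescence in the same wells as the antagonist screen, added after 15.5 h of a 16 h, 37C exposure. Human breast carcinoma MDA-kb2 AR-luc cells, compounds co-dosed with agonist R1881.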
# [8] = qHTS assay to identify small molecule antagonists of the thyroid receptor (TR) signaling pathway - cell viability counter screen (AID 743064); conditions: GH3.TRE-Luc viability, CellTiter-Fluor, 24 h; activity change, negative = cytotoxic: at 70.3 µM (top of the series) unless noted; further: potency means the concentration at half of the fitted maximal effect; nearly all actives have a fitted effect of over 50% in size
# Procedure, shortened: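 Fluorescence from CellTiter-Fluor, added after 23.5 h exposure at 37 °C, reported viability of GH3.TRE-Luc cells co-treated with compound and 1 nM T3. Measured in the same wells as the luciferase TR readout.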
# [9] = qHTS assay to identify small molecule antagonists of the estrogen receptor alpha (ER-alpha) signaling pathway - cell viability counter screen (AID 743074; calls by dose curve;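 further: HEK293 cells carrying ER-alpha-UAS-bla reporter stimulated with 17beta-estradiol; potency means the concentration at half of the fitted maximal effect; nearly all actives have a fitted effect of over 45% in size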)
# [10] = qHTS assay to identify small molecule antagonists of the estrogen receptor alpha (ER-alpha) signaling pathway using the BG1 cell line - cell viability counter screen (AID 743081); conditions: BG1Luc4E2 viability, CellTiter-Fluor, 22 h; activity change, negative = cytotoxicity: at 70.3 µM (top of the series) unless noted;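 further: compound given together with 17beta-estradiol as the ER stimulus; potency means the concentration at half of the fitted maximal effect; nearly all actives have a fitted effect of over 45% in size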
# [11] = qHTS assay to identify aromatase inhibitors - cell viability counter screen (AID 743084); conditions: MCF-7 aro ERE viability, CellTiter-Fluor, 24 h; activity change, negative = cytotoxicity: at 70.3 µM (top of the series) unless noted;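 further: cells stimulated with testosterone during compound exposure; potency means the concentration at half of the fitted maximal effect; nearly all actives have a fitted effect of over 55% in size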
# [12] = target: Peroxisome proliferator-activated receptor gamma (Homo sapiens) (UniProt P37231); test: qHTS assay to identify small molecule antagonists of the peroxisome proliferator-activated receptor gamma (PPARg) signaling pathway (AID 743191; calls by dose curve; further: on the % scale 0 is the no-effect control and ±100 the full control effect; nearly all actives have a fitted effect of over 30% in size); conditions: HEK293H PPARg-UAS-bla, beta-lactamase ratio, antagonist, 17 h
# Procedure, shortened: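 Beta-lactamase reporter under UAS control in HEK293H PPARg-bla cells; compound treatment 17 h at 37C. Read-out: fluorescence intensity after 1 h room-temperature incubation with LiveBLAzer B/G FRET substrate.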
# [13] = qHTS assay for small molecule agonists of the antioxidant response element (ARE) signaling pathway (AID 743202; active means well fitted activation curve with a large enough effect in the signal ratio in the repeat runs, not every such curve was filed as active; inconclusive means weak or mixed curves, or effect the other way; inactive means no such curve, though single readings can be large or run the other way; the % refers to the signal ratio; further: on the % scale 0 is the no-effect control and ±100 the full control effect); conditions: HepG2 ARE-bla reporter, beta-lactamase FRET, 16 h; activation: at 73.3 µM (top of the series) unless noted
# Procedure, shortened: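 After 16 hours of compound treatment at 37 C, HepG2 cells with a stably integrated ARE-driven beta-lactamase reporter were loaded 2 hours at room temperature with LiveBLAzer B/G FRET substrate and fluorescence intensity measured.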
# [14] = qHTS assay to identify small molecule antagonists of the peroxisome proliferator-activated receptor delta (PPARd) signaling pathway - cell viability counter screen (AID 743213); conditions: PPARd-bla HEK293H viability, CellTiter-Glo luminescence, 17 h; viability change, negative = cytotoxic: at 62 µM (top of the series) unless noted; further: potency means the concentration at half of the fitted maximal effect; nearly all actives have a fitted effect of over 50% in size
# Procedure, shortened: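 Viability counter-screen, qHTS format: PPARd-bla HEK293H, L165041 300 nM final, 17 h compound exposure at 37 C, CellTiter-Glo luminescence after 30 min RT.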
# [15] = target: Bile acid receptor (Homo sapiens) (UniProt Q96RI1); test: qHTS assay to identify small molecule agonists of the farnesoid-X-receptor (FXR) signaling pathway (AID 743220; active means well fitted activation curve with a large enough effect in the signal ratio in the repeat runs, not every such curve was filed as active; inconclusive means weak or mixed curves, or effect the other way; the % refers to the signal ratio; further: on the % scale 0 is the no-effect control and ±100 the full control effect); conditions: HEK293T FXR-UAS-bla, beta-lactamase FRET ratio, 16 h; activation: at 62.6 µM (top of the series) unless noted
# Procedure, shortened: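 FXR-UAS-bla HEK 293T cells carrying a UAS-driven beta-lactamase reporter were plated for 5 h at 37C/5% CO2, then exposed to DMSO-dissolved Tox21 10K compounds for 16 h at 37C. A LiveBLAzer B/G FRET substrate was loaded for 2 h at room temperature before fluorescence reading.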
# [16] = target: Vitamin D3 receptor (Homo sapiens) (UniProt P11473); test: qHTS assay to identify small molecule agonists of the vitamin D receptor (VDR) signaling pathway (AID 743222; calls by dose curve; further: on the % scale 0 is the no-effect control and ±100 the full control effect); conditions: HEK293T VDR-UAS-bla, beta-lactamase FRET ratio, 16 h; activation: at 63.5 µM (top of the series) unless noted
# Procedure, shortened: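 Fluorescence from cleaved LiveBLAzer B/G FRET substrate served as readout. VDR-bla cells had been treated 16 h at 37C with test compounds in DMSO, following a 4 h settling period, and substrate was loaded for 2 h at RT.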
# [17] = qHTS assay to identify small molecule antagonists of the vitamin D receptor (VDR) signaling pathway - cell viability counter screen (AID 743225); conditions: VDR-bla HEK293T viability, CellTiter-Glo luminescence, 16 h; viability change, negative = cytotoxic: at 61 µM (top of the series) unless noted; further: on the % scale 0 is the no-effect control and ±100 the full control effect; nearly all actives have a fitted effect of over 50% in size
# Procedure, shortened: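 Read-out: CellTiter-Glo luminescence measured 30 min after reagent addition at room temperature. Cells were VDR-bla HEK 293T exposed 16 h at 37C, 5% CO2, to compound with 3 nM final calcitriol agonist.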
# Tags describe the fitted curve by direction and shape.
# UniProt Q96RI1, sequence (Q96RI1 whole entry, looked up): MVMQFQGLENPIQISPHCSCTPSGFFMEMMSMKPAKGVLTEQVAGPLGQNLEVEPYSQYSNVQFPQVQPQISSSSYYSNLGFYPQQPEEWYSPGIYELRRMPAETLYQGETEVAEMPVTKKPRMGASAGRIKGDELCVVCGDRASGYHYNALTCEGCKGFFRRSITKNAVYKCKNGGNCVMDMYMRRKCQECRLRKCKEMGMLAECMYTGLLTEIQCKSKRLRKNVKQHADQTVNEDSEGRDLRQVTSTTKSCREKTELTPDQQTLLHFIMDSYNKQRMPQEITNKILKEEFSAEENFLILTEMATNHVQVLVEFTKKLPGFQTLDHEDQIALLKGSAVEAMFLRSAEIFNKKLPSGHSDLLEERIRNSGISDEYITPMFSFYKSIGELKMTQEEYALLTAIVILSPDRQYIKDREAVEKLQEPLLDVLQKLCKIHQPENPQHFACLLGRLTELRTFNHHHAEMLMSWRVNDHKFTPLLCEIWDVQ
# UniProt P37231, sequence (P37231 whole entry, looked up): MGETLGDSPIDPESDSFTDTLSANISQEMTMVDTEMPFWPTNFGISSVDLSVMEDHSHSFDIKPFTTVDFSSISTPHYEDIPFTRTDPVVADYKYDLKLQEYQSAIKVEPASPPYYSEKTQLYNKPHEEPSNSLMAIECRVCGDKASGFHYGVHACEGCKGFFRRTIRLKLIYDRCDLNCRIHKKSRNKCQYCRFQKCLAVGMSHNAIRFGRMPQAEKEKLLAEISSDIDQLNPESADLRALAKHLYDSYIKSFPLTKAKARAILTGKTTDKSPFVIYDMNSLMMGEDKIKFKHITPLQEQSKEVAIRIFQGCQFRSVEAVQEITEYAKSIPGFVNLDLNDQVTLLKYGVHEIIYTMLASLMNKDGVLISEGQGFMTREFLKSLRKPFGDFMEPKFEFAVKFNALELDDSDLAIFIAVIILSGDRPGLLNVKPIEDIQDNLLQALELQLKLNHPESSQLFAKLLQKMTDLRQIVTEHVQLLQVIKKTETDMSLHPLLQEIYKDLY
# UniProt P11473, sequence (P11473 whole entry, looked up): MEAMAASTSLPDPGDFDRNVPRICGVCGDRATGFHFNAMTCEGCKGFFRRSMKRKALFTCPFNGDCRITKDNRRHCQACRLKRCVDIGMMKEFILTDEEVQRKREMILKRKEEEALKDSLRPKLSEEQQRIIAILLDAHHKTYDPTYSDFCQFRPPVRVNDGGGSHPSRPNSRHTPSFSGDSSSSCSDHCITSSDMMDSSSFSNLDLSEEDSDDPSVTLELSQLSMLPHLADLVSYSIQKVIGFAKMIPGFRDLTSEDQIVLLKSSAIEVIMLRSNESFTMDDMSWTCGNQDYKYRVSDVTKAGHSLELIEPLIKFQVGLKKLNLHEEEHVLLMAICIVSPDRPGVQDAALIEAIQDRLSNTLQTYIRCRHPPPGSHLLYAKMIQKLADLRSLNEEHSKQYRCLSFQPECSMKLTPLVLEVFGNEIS
smiles,measurement,setting,value
O=C(O)c1[nH]n(-c2ccc(S(=O)(=O)O)cc2)c(=O)c1N=Nc1ccc(S(=O)(=O)O)cc1,activation,[1]; activation: at 73.3 µM (top of the series) unless noted,inconclusive: 17%
same,activation,[1]; at 73.3 µM (top of the series),inactive: 1.85% and inactive: -1.53%
same,Potency,[2],"inconclusive: 0.119 µM [activator, single point]"
same,"ratio activity, negative = MMP loss",[3]; at 83.2 µM (top of the series),inactive: -6.89% and inactive: 19.9%
same,"ratio activity, negative = MMP loss","[3]; ratio activity, negative = MMP loss: at 83.2 µM (top of the series) unless noted",inconclusive: 39.7%
same,"activity change, negative = cytotoxicity",[4],inconclusive: -35.7%
same,Potency,[5],"inconclusive: 48.7 µM [rising, partial curve, poor fit]"
same,"activity, negative = cytotoxicity",[5],inconclusive: -28.5%
same,"activity change, negative = cytotoxicity",[6],inconclusive: -90%
same,Potency,[7],active: 15 µM and active: 61.3 µM and active: 57.1 µM
same,Potency,[8],"inconclusive: 33.5 µM [cytotoxic, partial curve, poor fit]"
same,Potency,[9],"inconclusive: 25.7 µM [rising, partial curve, poor fit]"
same,Potency,[10],active: 54.6 µM and active: 64.1 µM
same,Potency,[11],"inconclusive: 29.8 µM [cytotoxic, single point]"
same,"ratio activity, negative = inhibition",[12]; at 62.6 µM (top of the series),inactive: 0.519% and inactive: 1.43%
same,"ratio activity, negative = inhibition","[12]; ratio activity, negative = inhibition: at 62.6 µM (top of the series) unless noted",inconclusive: -38.1%
same,activation,[13],inconclusive: -0.0799% and inconclusive: 15.1%
same,Potency,[14],"inconclusive: 0.298 µM [cytotoxic, single point]"
same,Potency,[15],inactive
same,Potency,[16],inactive
same,Potency,[17],inactive
